Data from the supplement of paper PMC11417369.
± gives the standard deviation of the averaged measurements. This is one part of the list.

test system: PfAP2-EXP AP2 domain (GST-tagged); assay: gcPBM binding intensity (ln(normalized median fluorescence intensity)); higher = stronger DNA binding
Summary of the method: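 Each value is the highest Masliner-normalised natural-log median intensity across replicate spots of either orientation of a probe. The probes were primer-extended double-stranded 36-bp intergenic genomic sequences on an Agilent 4 × 180k array, alongside negative controls, exposed for 1 h to GST-tagged P. falciparum DNA-binding domains expressed in E. coli. Bound protein was picked up with Alexa488 anti-GST antibody and scanned at 488 nm.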

| Sequence | gcPBM binding intensity (ln) |
| --- | --- |
| TACAGATATAAACACACACACATATATATATATATA [CACACA_site4846] | 10.2 ± 0.48 |
| TTTTTTTTCATTGGTTGTACAATATTTATAATTCAC [XGTACX_site7036] | 8.635 ± 0.007 |
| TTTGTTAATATAAAAACACACAAAAATAACATAAAA [CACACA_site2619] | 8.71 ± 0.38 |
| ATGTAATATTTACAACGTACAAATTATAAACATATT [XGTACX_site603] | 8.54 ± 0.3 |
| TCATATTGGCTGTTCTGTACTTATAAGTTTTAAAGA [XGTACX_site5593] | 8.88 ± 0.36 |
| TATATTAAAAAAGAGGTGCATTCGTAAGAGGTTAAA [GTGCAC_site9720] | 8.75 ± 0.33 |
| ATATATATATATATATGTACATATACATATGTGCAA [XGTACX_site5604] | 10 ± 0.5 |
| AAATGAATAAATAGGTCACACACAAATATATATAAA [CACACA_site8764] | 8.88 ± 0.42 |
| TATTTTTAAAATATAAGTAAAAAAATAATATAAACT [TGCATGCA_negctrl_site283] | 8.69 ± 0.55 |
| AATAAATAAAGAAGTACACACATATATATATATATA [CACACA_site4314] | 10.1 ± 0.41 |
| ATAATAAAAAAAATTAGTACATATATAAATATAAAT [XGTACX_site1937] | 8.3 ± 0.33 |
| ATATATCTATAAAAGGCTTCCCACTTTTTTTGTCAA [TGCATGCA_negctrl_site332] | 8.57 ± 0.25 |
| TAATTTCTTAGGTATTGTACAAATATTATATGATAT [XGTACX_site256] | 8.55 ± 0.43 |
| AGTACATTTTTGTGTGTGCACTAATATTATATACTT [GTGCAC_site9568] | 8.88 ± 0.11 |
| TAAATAATATCTATCACACACGCATAAATACAGATA [CACACA_site5449] | 8.55 ± 0.45 |
| ATAAAAAAAAAAAAAAGTACACATATAAAAGTATTG [XGTACX_site8265] | 8.42 ± 0.41 |
| ATTTATTTTATTTTCACACACAAAAATAAATATCCG [CACACA_site2414] | 8.44 ± 0.44 |
| CGCAATTAAAATATGTGTCCTCATTTTATAACATTT [XGTACX_site5340] | 8.51 ± 0.38 |
| AAATTTATGTGTGCCTGTACATATCAAAGATTTAAG [XGTACX_site8547] | 8.49 ± 0.28 |
| TATAATGTATGTAGTGCACACCTCTATAATATATTA [CACACA_site8560] | 8.92 ± 0.14 |
| ATTCTACCACGCGATATACACACTTGTAGACATCTT [CACACA_site188] | 8.97 ± 0.49 |
| TGTATAATATTTGGTGCACACAAATTAACAACTGTT [CACACA_site9245] | 9.21 ± 0.32 |

| Sequence | gcPBM binding intensity (ln) |
| --- | --- |
| AATATTAAAATAAAAAGTACTTATTTATGTATGTTG [XGTACX_site2682] | 8.52 ± 0.21 |
| TATTTACAAAAAAAATATAAAAAATATAAAATATAT [CACACA_negctrl_site575] | 8.12 ± 0.31 |
| TTTATATAACAACAAAATGGAAATATATATGTATGT [TGCATGCA_negctrl_site98] | 8.68 ± 0.39 |
| AAAAAAAAAAAAGAACGTACAAATTAATTTATAGAA [XGTACX_site5584] | 8.75 ± 0.44 |
| CAGACATATTAAAAGAGTACATATATATATATATAT [XGTACX_site1158] | 10.3 ± 0.28 |
| TGTTTATTACTCAGGTGTACTCAATTTTTTTTTTTT [XGTACX_site3470] | 8.69 ± 0.36 |
| TACACAAATATATACATACACACATATATACGCATA [CACACA_site394] | 8.55 ± 0.45 |
| TAATATTGACTATATACACACATATATATATATATA [CACACA_site575] | 10.2 ± 0.28 |
| GAACAATATATTTGCACACAAAAAATATATATTTAT [CACACA_site3317] | 8.61 ± 0.31 |
| ATACAAGTATTAATTACACACTCAAAAAGAAAAAAC [CACACA_site5287] | 8.64 ± 0.46 |
| TAGATTTAAAAAAAAAAAAAATTTTTTTTTTTTTTT [TGCATGCA_negctrl_site593] | 8.24 ± 0.47 |
| GAATACTCATTTCTTTGTACATATATATGTGTATTT [XGTACX_site6411] | 8.97 ± 0.39 |
| GTTTACATCATTCTGGTGCAAAAAAAAAAAAAAATA | 8.67 ± 0.21 |
| GGATAAAAAATATGTACACACATATAGATATCTATA [CACACA_site2693] | 8.56 ± 0.46 |
| TTCATATGGAATAAAAGTACGTATTAAAACAATTTT [XGTACX_site8742] | 8.66 ± 0.35 |
| CATATAAACAATAACACACACCTAGGTACATGGAAA [CACACA_site4615] | 8.94 ± 0.56 |
| CTTTTTAATTTATCGACACACGCATGAATAGAAATT [CACACA_site9112] | 8.54 ± 0.51 |
| AAAGCAAATAATAAGTGTACGGGTCAATATATGCGT [XGTACX_site1519] | 9.04 ± 0.5 |
| GTGTACAAAATATGGTAATAAAGTAGTTACATGAAT [CACACA_negctrl_site1775] | 8.93 ± 0.53 |
| CTAAATTGTTAATAGAGTACATTTGTATAATATAAG [XGTACX_site594] | 8.44 ± 0.13 |
| TTATGTTGTAAATACACACATACATATACATACACA [CACACA_site733] | 8.57 ± 0.37 |
| AATAAAATATAATAATTAATATATATATATATATAA [GTGCAC_negctrl_site457] | 8.23 ± 0.22 |

| Sequence | gcPBM binding intensity (ln) |
| --- | --- |
| TATGTGAAATAAGGATGTACAATTTTGATTTCCCCA [XGTACX_site8389] | 8.86 ± 0.52 |
| TTTAATGAAAGAAACACATACGTATCAAAATATATG [TGCATGCA_negctrl_site510] | 8.76 ± 0.41 |
| TACGTTGTATATTTTTGTACATATTGAATTACAAAA [XGTACX_site5906] | 8.53 ± 0.32 |
| TTTTAATAATTTATAAAAAAAAAAAAAAAATAAATA [TGCATGCA_negctrl_site419] | 8.21 ± 0.49 |
| CATAGAATAATTTATTGTACGTGCATGCTATTTTTT [XGTACX_site8984] | 9.22 ± 0.42 |
| TATAATATTTATATAACACACATATATATTTATTTA [CACACA_site280] | 8.15 ± 0.24 |
| AATGCTATCTTCTTATTTTTCATACACAACATGAAC [CACACA_negctrl_site1809] | 8.95 ± 0.44 |
| AAAATAAATTTTTATGTTATATATACAATTTCTCTA [CACACA_negctrl_site1760] | 8.12 ± 0.22 |
| ATTAAATATATGATGTGTACATATTCGTGTATGTTT [XGTACX_site2141] | 8.48 ± 0.33 |
| AAACAGAATACATATACACACATACAAAAAAGTGCA [CACACA_site8235] | 9 ± 0.24 |
| TATACATTTTTATAAAGTACACAAAAATAAATATAA [XGTACX_site1647] | 8.54 ± 0.33 |
| TTATGAAATAGAATAACACACATATTTATATATGTG [CACACA_site2050] | 8.14 ± 0.44 |
| TTTTTTTATATTTTTAGTACACATTGGTATATATAT [XGTACX_site4114] | 8.79 ± 0.42 |
| TATTTTTTTAAAAATACACACATAAAATCATGAAAA [CACACA_site1085] | 8.61 ± 0.47 |
| ATATATATATGTCAAAGTACTAAAAATATATACATA [XGTACX_site3397] | 9.5 ± 0.028 |
| TTTATTTATCTGAACACATGCAGACAAATAACATAT [TGCATGCA_site929] | 8.88 ± 0.32 |
| TATCACATATTATGATGTACAAGGATTCTGACTAAT [XGTACX_site1196] | 8.45 ± 0.4 |
| CATAAACTTTATAACACACACTTATAAATATAAATA [CACACA_site6646] | 8.41 ± 0.4 |
| ATTATATATAAACACACACACATGCATGCACATATA [CACACA_site4237] | 10 ± 0.26 |
| GTTATAAAATATGGCACACAAAATGTAAGTAAATGA [CACACA_site1458] | 8.97 ± 0.42 |
| GATCTTTAAATTTATTGTACATAAATGTATATGTTA [XGTACX_site1107] | 8.59 ± 0.45 |
| ATATATTTTGTTATGGTGCGTAAGAAATATATTCTT [GTGCAC_site9825] | 8.65 ± 0.23 |

| Sequence | gcPBM binding intensity (ln) |
| --- | --- |
| TATATATAGAAACACACACACATATATATATATTTT [CACACA_site2540] | 8.56 ± 0.77 |
| TATATATTATAAAATAGTACACAGAATTTAAATATA [XGTACX_site100] | 8.69 ± 0.46 |
| AATATTTTTTTATAAACACACATATAAATAAATATA [CACACA_site7622] | 8.41 ± 0.4 |
| TCTTTTAAACAGTACACACACACATATATATATATA [CACACA_site924] | 10.3 ± 0.22 |
| TTGTTGATTGTTATTTATCATTAGATGTAAAATATG [CACACA_negctrl_site927] | 8.39 ± 0.3 |
| TATTATATGTATTGCACACCTTCAACAACTACTTCT [CACACA_site655] | 9.03 ± 0.14 |
| GGGCATATAATATAAAGTACAGGACTATAAAAATAT [XGTACX_site4481] | 8.55 ± 0.38 |
| ATATCTATAATAAACACACACATATACCTATAGGTA [CACACA_site7596] | 8.66 ± 0.54 |
| ATTGTGCACTTATATGCACACATTTTAGTTTTTTTT [CACACA_site2028] | 8.54 ± 0.12 |
| GGACTTTATAAAAATGGTACACGCAATTCTATAATC [XGTACX_site6515] | 8.55 ± 0.33 |
| TAATATATAAAAAGATGTACTTTTGCAAGTTCCTTT [XGTACX_site8519] | 8.4 ± 0.4 |
| GGTACATACAAACACACACACAAAAAAAAAAAAATA [CACACA_site1577] | 8.46 ± 0.6 |
| ATATATATATATGTATGTACGTATGTATGTATGAAT [XGTACX_site4857] | 9.91 ± 0.29 |
| TGTACAGTAAATACAACACACATTTGTATAAATATA [CACACA_site4705] | 8.54 ± 0.39 |
| TATTGTATAAAAATAACATGCAATCCTTATACTGCT [TGCATGCA_site345] | 8.41 ± 0.32 |
| AATGACATTCTTACACGTACAAAATAAAAAATAAAA [XGTACX_site6932] | 8.72 ± 0.53 |
| ATTTATTTTATAATATATAAATGATATATCTTATTA [CACACA_negctrl_site66] | 8.03 ± 0.38 |
| TATATATTATATTCATGTACGTAAAAATTTTGAATA [XGTACX_site6734] | 8.63 ± 0.49 |
| CCATATGATATATATTGTACATTATATATTATTTCT [XGTACX_site1697] | 8.48 ± 0.33 |
| TATGTTGTTTATTTAGTGCATATTTAAATATTATAA [GTGCAC_site9601] | 8.92 ± 0.14 |
| TTTTCTTTCTTGTTTCGTATATTATAAAAAAAAAAG [CACACA_negctrl_site854] | 8.62 ± 0.49 |
| GTATTTTGCATAAATGCATGTAAATATATACCTACC [TGCATGCA_site957] | 8.8 ± 0.071 |
